Drawing on publication PMC12136788, this text covers binding signal for 22 molecules.

Some of the results follow.

B1: chr1:58468927:58468928:-_ENSMUSG00000026034_ENSMUST00000148330|mus_mus|mus_mus_mus_hu_False|48_58 (ssRNA)
RNA: GGGAGUUCUACAGUCCGACGAUCAAUUACUGAAAAAGAUGUUCAUUACCUUAGCUAUGUACUUAAUGAACCAAAUUAUCUAAAAAACAUAAAAUGUGCAAUAUAAAAAUGUUAAGAAUUUACAAAGCUGUACAAAAUAACUUACAACAGAGGAUUGAGCAUCA
B2: chr9:34402745:34402746:-_ENSG00000164970_ENST00000297620|hu_hu|FALSE|FALSE (ssRNA)
RNA: GGGAGUUCUACAGUCCGACGAUCGGGGACGACCAGCCUUGUUCGGGCCAUGACAUUGUUCUUCUUGGGUUGCUGGUUGACAGGGCUACCCAUGCUGCCAUUCUUCAGGGAGCCCUUCCGGGCCAGCUCCCGCUGCUUCUCCUCCAACAGAGGAUUGAGCAUCA
B3: 88341318_88341438_1838_3pUTR_ENSMUSG00000074480_ENSMUST00000172699|mouse|control|control (ssRNA)
RNA: GGGAGUUCUACAGUCCGACGAUCGCAAAAUGACAUGUGGAUAGGGAGAAGGGAAAGGUCAGGAUGUGUGUCCUGGUGGCCACUUCUGGCUAAACAAAAGCUUCUCUUAGCUGCUUCCAGAUUUAAGGGUGUGUUGAGGUAUCACAACAGAGGAUUGAGCAUCA
B4: chr8:104447970:104447971:+_ENSG00000164934_ENST00000297579|hu_hu|hu_hu_hu_mus_False|8_8 (ssRNA)
RNA: GGGAGUUCUACAGUCCGACGAUCAUACACUUCCCUGCUUCGGCUCUUGUCCACAGGAAAGAUUCUAAUAGACUUAUCAAAGCUGGCAGACACAAAUUCCUUCCCAGUGGGAGAGUAGUCCACAUCAAGCACUGCAGACACGUGCAACAGAGGAUUGAGCAUCA
B5: chr16:94690422:94690423:+_ENSMUSG00000040785_ENSMUST00000117648|mus_mus|FALSE|FALSE (ssRNA)
RNA: GGGAGUUCUACAGUCCGACGAUCAUGUAUUCAAGGUUCACAUGUCUGUAUUUGCCACUGCCUACAGGUCACUAAAAAUACCUAGUUUUUGAAUAGUUUCUAAUACAGUUAGCUUGUUUUCAGGCCACAUUACAAGAUUGCAUGCAACAGAGGAUUGAGCAUCA
B6: chr5:151611259:151611260:+_ENSMUSG00000034021_ENSMUST00000016569|mus_mus|motif|central (ssRNA)
RNA: GGGAGUUCUACAGUCCGACGAUCGCAUUUCUGAACAUAAUGUUCAAGAAGUAAUAUCUAUACACAAUAACAUUCGGGACGGUUAAAAGCCCAUUCAAAUUACAGAAUUUUAUUGAUACAGUAGAUUAAUAUAAACUGAAAAAACAACAGAGGAUUGAGCAUCA
B7: 120821320_120821440_3349_CDS_ENSMUSG00000049878_ENSMUST00000056635|mouse|control|control (ssRNA)
RNA: GGGAGUUCUACAGUCCGACGAUCCUCAUAUUUGCAUCCUUGAAGCUCACAGAAGAAAGGCUUUGCCGCCAACUGUGCAAGGUACUGACUUGGCAUAUUUUCAUCCUGAUUCUGAAGAUUAACGUCUGAAAUGGAAGAUGGGACCAACAGAGGAUUGAGCAUCA
B8: chr2:117004238:117004239:+_ENSMUSG00000027351_ENSMUST00000028829|mus_mus|motif|central (ssRNA)
RNA: GGGAGUUCUACAGUCCGACGAUCUUAACUACUCAACACAUAUGGAAUGUGGUGGCAGAUAUGUGCACAUCUACCUCAGAACGGGGAAGGGCAAGAAAAGUUUAAUAUGUCAUAGUUCGUACCUUACAUUUAGUUAAAUAUAAACAACAGAGGAUUGAGCAUCA
B9: chr2:48026839:48026840:+_ENSG00000116062_ENST00000540021|hu_hu|hu_hu_hu_mus_False|58_98 (ssRNA)
RNA: GGGAGUUCUACAGUCCGACGAUCAUAGUGAGCCACUAGAGUCCUAAAUCUGGAACAGUGGCGGUCAUCCGAAAACUGACCUAUGAAAAACUUGCCCAGUGAAGUGUCCACAAAGCAAACACCAUACACACGAGUGUGACCAGACAACAGAGGAUUGAGCAUCA
B10: chr4:34756745:34756746:-_ENSMUSG00000039967_ENSMUST00000047950|mus_hu|FALSE|FALSE (ssRNA)
RNA: GGGAGUUCUACAGUCCGACGAUCUAUAUUUGGAUUUAUGACACUUUCCAUUGAGGACAACAAUGGAGUUGACACACUUGCUAAAUGAGCUGGAAAAAUGGGUGGCGAGACAUGCUGCAACUGGGCCGAACAAGCAGGAUUCCCCAACAGAGGAUUGAGCAUCA
B11: 90437560_90438655_5519_CDS_ENSG00000112159_ENST00000369393|human|control|control (ssRNA)
RNA: GGGAGUUCUACAGUCCGACGAUCCACCACCCAAUGGCCUGCCUUCAAAGCUGCCAGUAAGGGGCCAUCACGCCAGGCAAACUCUCCUCCCUUGCCACCUUCAACAGGUAGAUCUGCUCCAAACAGGUCUGUGAUGUCCGUUUGCAACAGAGGAUUGAGCAUCA
B12: chr14:52780626:52780627:-_ENSMUSG00000035726_ENSMUST00000046709|mus_hu|FALSE|FALSE (ssRNA)
RNA: GGGAGUUCUACAGUCCGACGAUCAGACAGUGGCAAUUUUGCCUUCUAUCAUUGUACCAUGUGUGCAUUGUAUGGAGAAAAUAACCGAGCCAGGGAGUAUCACUGCUUCUUAUGUCUUCCAAGGCAGCAGAUAUACCUCAGAAUCAACAGAGGAUUGAGCAUCA
B13: chr5:179045309:179045310:-_ENSG00000169045_ENST00000393432|hu_mus|FALSE|FALSE (ssRNA)
RNA: GGGAGUUCUACAGUCCGACGAUCAUAAUGAGUUCUAACUUCAGCUCGACUGCUCUUAAAUAUUUCAAUAUACCUGUGCCCUAUUCUUUCCUUGUGUUUCUUUAGAGCCUUUUCAGCUAUUUCCUGUGAAGCAAACUGCACGAACAACAGAGGAUUGAGCAUCA
B14: chrX:71549762:71549763:+_ENSMUSG00000019087_ENSMUST00000019231|mus_mus|mus_mus_mus_hu_False|18_58 (ssRNA)
RNA: GGGAGUUCUACAGUCCGACGAUCAAACCCGUGUACUUCUUAUUGUUAGCACAACAUCACCAGAAAACGAUAACGACAGCUAAGCUGGACAGACAGUUAAGUAGUACUUCCACACUCCGCAAAUUCAGGAGCCCUAUAACCUUACAACAGAGGAUUGAGCAUCA
B15: chrX:71549400:71549401:+_ENSMUSG00000019087_ENSMUST00000019231|mus_hu|mus_mus_mus_hu_False|68_88 (ssRNA)
RNA: GGGAGUUCUACAGUCCGACGAUCGCAGUAGGAAGAGGGAAGCUCUUCAUCCACUGUCGCUGCAGGGAGAAACAUGAACAACACGGACACCGUCCCACCCUCAACCCCCCCACUGGCACAGGGUCACACAAUCUGGGUCAAAGACAACAGAGGAUUGAGCAUCA
B16: 127009584_127009886_5678_CDS_ENSMUSG00000040249_ENSMUST00000049149|mouse|control|control (ssRNA)
RNA: GGGAGUUCUACAGUCCGACGAUCCCAGUAGAGUUUGCUCUCAGGGAAGUCAAUGGCCAACCCCACAGGGCCCUUCUGGCCACUGAAGAGCAGAGUGUGGUUGCUCCCAUCCAUGUUGGCCAUGCUGAUGUUGUCCCCAUCAGUCAACAGAGGAUUGAGCAUCA
B17: 15136406_15136526_5181_CDS_ENSMUSG00000046111_ENSMUST00000161132|mouse|control|control (ssRNA)
RNA: GGGAGUUCUACAGUCCGACGAUCAGUCUCUCUGUGUCUUUGGAUUUGCUGCUGUAAGGAUGUCUGUCUCUGCACAAGCAAUUCUUCUUGGGCUUUUUGCCUAGAGUGUAGAGUUUCUCUUUGUAGAUUCAGCUGCUUCUGAAGCAACAGAGGAUUGAGCAUCA
B18: 44621135_44621403_292_3pUTR_ENSG00000158604_ENST00000457408|human|control|control (ssRNA)
RNA: GGGAGUUCUACAGUCCGACGAUCAAGCGGCCCUCCGAGCCGUACUGCCGGGACAGCACCACCUUGCCGUCGGGGUCCUUCACUUCCACGUGCAUGCCCAGGCCAGGGGUCGAGGGCAGGAAGACCUCCUUCUGCUUAUCCCACCAACAGAGGAUUGAGCAUCA
B19: chr9:110451855:110451856:+_ENSMUSG00000044791_ENSMUST00000153838|mus_hu|FALSE|FALSE (ssRNA)
RNA: GGGAGUUCUACAGUCCGACGAUCAACUGGCAUAGACAUGAGUUUAUCUUGGUGUGGUGACACCAGAGGUUCUGUUUCUCUAAAUGGGCUUUCUGACUUCUUAUGCAGCAUGCAGGUAUCAUCCAAGUCUUUUUCUUUGCACCUCAACAGAGGAUUGAGCAUCA
B20: chrX:140365796:140365797:-_ENSMUSG00000031285_ENSMUST00000033642|mus_mus|mus_mus_mus_hu_False|28_58 (ssRNA)
RNA: GGGAGUUCUACAGUCCGACGAUCCUUCUCAUUACUCAGUGCCUGCAAGGUUCUGGUUCGGUAGAAGCUACAGUGGGCACUAUGAGUGGGGCUAGGCAACCCAUUCAUCCGUGACCCUCGCAUGUUCCUGGAUGUCUUAUCUCUCAACAGAGGAUUGAGCAUCA
B21: chr2:232597714:232597715:-_ENSG00000156973_ENST00000287600|hu_hu|FALSE|FALSE (ssRNA)
RNA: GGGAGUUCUACAGUCCGACGAUCGAAAAGUCUCACUCUGGAUGUGCUUACAAGAAGAUCGUCGUCAAAAAACUUUGUUUCUAUGAUAACGUUCCCAGUUAAGACGCUUGCUGGCAUCAUCUGGGACUCGGGUGCUGCCUCUAUCAACAGAGGAUUGAGCAUCA
B22: 71035246_71035366_2326_3pUTR_ENSMUSG00000052040_ENSMUST00000063694|mouse|control|control (ssRNA)
RNA: GGGAGUUCUACAGUCCGACGAUCGGCAGAAGCAGGACAGAAGAGUGGGUAAUGCAACAGUGUGGAACUGUGGGUCUGCUAAGUCUGUACCCAAGGUUCUGAGAAAGUCAUUCCCACAAUUUUCAUCCGGUGUCCCCCAGAGCACAACAGAGGAUUGAGCAUCA

The target in this test is T1, UNK ZnF1-3 (human, UniProt Q9C0B0 31-174).
T1 sequence: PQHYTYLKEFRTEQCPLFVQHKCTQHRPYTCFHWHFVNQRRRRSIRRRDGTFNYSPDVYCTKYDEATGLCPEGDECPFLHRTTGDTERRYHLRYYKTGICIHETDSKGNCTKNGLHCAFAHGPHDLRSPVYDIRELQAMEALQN
The test is described as follows: nsRBNS (natural sequence RNA bind-n-seq); RBNS binding buffer (assumed for nsRBNS): 25 mM Tris pH 7.5, 150 mM KCl, 3 mM MgCl2, 0.01% Triton X-100, 500 ug/ml BSA, 20 U/ml SUPERase-In, 4 C; UNK is unkempt and MSI1 is Musashi-1; names of the RNAs are library labels; protein concentration not given here; high values mean tight binding.
Consider B1, for which the binding signal worked out at 1.8 enrichment R.

Molecule B2 yielded a binding signal of 0.601 enrichment R.

Turning to B3, the binding signal turned out to be 1.32 enrichment R.

In the case of B4, the binding signal is 1.23 enrichment R.

Molecule B5 yielded a binding signal of 0.883 enrichment R.

Turning to B6, the binding signal came out at 2.91 enrichment R.

As to B7, the binding signal was 1.59 enrichment R.

The molecule B8 returned a binding signal of 1.06 enrichment R.

For B9, the binding signal came to 1.18 enrichment R.

B10 returned a binding signal of 1.66 enrichment R.

As for B11, the binding signal was determined as 1.16 enrichment R.

On to B12, for which the binding signal was determined as 0.877 enrichment R.

In turn, B13 showed a binding signal of 0.789 enrichment R.

Turning to B14, the binding signal turned out to be 1.08 enrichment R.

Turning to B15, the binding signal stood at 1.15 enrichment R.

Consider B16, for which the binding signal stood at 0.63 enrichment R.

In turn, B17 displayed a binding signal of 0.392 enrichment R.

Regarding B18, the binding signal worked out at 1.12 enrichment R.

The molecule B19 had a binding signal of 0.838 enrichment R.

Molecule B20 registered a binding signal of 0.549 enrichment R.

B21 showed a binding signal of 0.832 enrichment R.

Molecule B22 registered a binding signal of 0.986 enrichment R.
